Results: a collection of fitness landscapes (doi:10.1016/j.celrep.2020.107928)
Over roughly 81,000 sequences, “one-hybrid fitness for binding NBS DNA” has its median near -0.1; the highest 2% begin near 0.36. The list shows a part of the results.

B1: Caulobacter ParB omega fusion; a variant is named by its letters at X, in order, B8GW30 (parent)
chain: MESVVVGEPGMSEGRRGLGRGLSALLGEVDAAPAQAPGEQLGGSREAPIEILQRNPDQPRRTFREEDLEDLSNSIREKGVLQPILVRPSPDTAGEYQIVAGERAWRAAQRAGLKTVPIMVRELDDLAVLEIGIIENVQRADLNVLEEALSYKVLMEKFERTQENIAQTIGKSXSHVANXMRLLXLPDEVQSYLVSGELTAXHARAIAAAADPVALAKQIIEGGLSVRETEALARKAPNLSAGKSKGGRPPRVKDTDTQALESDLSSVLGLDVSIDHRGSTGTLTITYATLEQLDDLCNRLTRGI

Variants of: B1
Assay: one-hybrid fitness for binding NBS DNA (the Noc-binding site; scaled: cognate 1, non-cognate 0); higher = stronger binding
Details: with NBS DNA site
Summary of the method: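 Selection: bacterial one-hybrid in E. coli USO, HIS3 reporter with the site 19 bp from the promoter, 48 hours at 37°C on M9-minus-histidine plus 0.1 mM IPTG and 5 mM 3-AT. Libraries were Caulobacter ParB with four randomised specificity codons, sequenced on Illumina before and after selection. Fitness is the rescaled log change in variant-to-wild-type read ratio, anchored to the cognate and non-cognate sites.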

Variant	one-hybrid fitness for binding NBS DNA
IAWG	≤ 0.2
ANRS	≤ 0.2
IALG	≤ 0.2
QYSS	0.357
IRTS	≤ 0.2
DVCT	≤ 0.2
PAYN	≤ 0.2
WCAG	≤ 0.2
EDHR	≤ 0.2
PSYF	≤ 0.2
KYLG	≤ 0.2
APNT	≤ 0.2
LTDG	≤ 0.2
PRTS	≤ 0.2
VGIN	≤ 0.2
QTPR	0.42
RCYV	≤ 0.2
LALF	≤ 0.2
SKKT	≤ 0.2
TPHK	≤ 0.2
WNAW	≤ 0.2
RQTM	≤ 0.2
NQAC	≤ 0.2
SMMI	≤ 0.2
PKDF	≤ 0.2

Variant	one-hybrid fitness for binding NBS DNA
HDCI	≤ 0.2
YQDT	≤ 0.2
NSTQ	≤ 0.2
RWDK	≤ 0.2
RRAT	0.782
CHLD	≤ 0.2
NSFW	≤ 0.2
WPIR	≤ 0.2
TIHH	≤ 0.2
PEMN	≤ 0.2
NTAR	≤ 0.2
ACMV	≤ 0.2
GGWR	≤ 0.2
YYGR	≤ 0.2
EDNC	≤ 0.2
QDRL	≤ 0.2
MCCR	≤ 0.2
RWKY	≤ 0.2
CQLC	≤ 0.2
PTIT	≤ 0.2
PNST	≤ 0.2
VFLT	≤ 0.2
PEKF	≤ 0.2
LITS	≤ 0.2
TWTQ	≤ 0.2

Variant	one-hybrid fitness for binding NBS DNA
AQGK	≤ 0.2
NSQG	≤ 0.2
IKWD	≤ 0.2
VRMT	≤ 0.2
TLTD	≤ 0.2
GLHL	≤ 0.2
PNNI	≤ 0.2
QCAL	≤ 0.2
LWCG	≤ 0.2
FPSD	≤ 0.2
TYKG	≤ 0.2
PNPK	≤ 0.2
CNWV	≤ 0.2
VNQF	≤ 0.2
ALNM	≤ 0.2
RWRP	≤ 0.2
CRNP	≤ 0.2
GHVY	≤ 0.2
VASN	≤ 0.2
SGRL	≤ 0.2
TTMN	≤ 0.2
VDMY	≤ 0.2
GPKG	≤ 0.2
SLQG	≤ 0.2
TFFS	≤ 0.2

Variant	one-hybrid fitness for binding NBS DNA
QAIG	≤ 0.2
HYPR	≤ 0.2
QQPK	≤ 0.2
PMWC	≤ 0.2
DYNL	≤ 0.2
TSQG	≤ 0.2
HDWY	≤ 0.2
NLKM	≤ 0.2
TREA	≤ 0.2
DIKC	≤ 0.2
LTTE	≤ 0.2
DIGR	0.229
RPKK	≤ 0.2
FPLT	≤ 0.2
PITD	≤ 0.2
RFMM	≤ 0.2
GWNC	≤ 0.2
LVRP	≤ 0.2
DDYV	≤ 0.2
DPPG	≤ 0.2
VASM	≤ 0.2
TWNP	≤ 0.2
EIFG	≤ 0.2
QPAQ	≤ 0.2
QCQS	0.448

Variant	one-hybrid fitness for binding NBS DNA
QQCR	0.63
RNFR	≤ 0.2
WMPG	≤ 0.2
PYCR	≤ 0.2
EYIS	≤ 0.2
QALP	≤ 0.2
RSSG	≤ 0.2
CVNS	≤ 0.2
HREN	≤ 0.2
SWGS	≤ 0.2
QFGL	≤ 0.2
EHGL	≤ 0.2
TNEC	≤ 0.2
ESVR	≤ 0.2
LIGS	≤ 0.2
MGSF	≤ 0.2
QQPS	0.26
NLIT	≤ 0.2
LPLN	≤ 0.2
SPHY	≤ 0.2
GQKT	≤ 0.2
MESD	≤ 0.2
GTTT	≤ 0.2
FSSV	≤ 0.2
RVYF	≤ 0.2

Variant	one-hybrid fitness for binding NBS DNA
LMGL	≤ 0.2
WSIC	≤ 0.2
YLFF	≤ 0.2
NDSR	≤ 0.2
DKNC	≤ 0.2
PWTD	≤ 0.2
NPEN	≤ 0.2
VYKD	≤ 0.2
GTGL	≤ 0.2
MAGE	≤ 0.2
LYPN	≤ 0.2
YATW	≤ 0.2
QDHL	≤ 0.2
HKWS	≤ 0.2
TASK	≤ 0.2
LKSW	≤ 0.2
TDRF	≤ 0.2
PFAG	≤ 0.2
SNFV	≤ 0.2
GTVR	≤ 0.2
FASC	≤ 0.2
AEPT	≤ 0.2
QERY	≤ 0.2
VLDS	≤ 0.2
PTTA	≤ 0.2

Variant	one-hybrid fitness for binding NBS DNA
VAAV	≤ 0.2
DKSR	≤ 0.2
LQRM	≤ 0.2
QKIT	0.363
MPSV	≤ 0.2
QTIK	≤ 0.2
TIGM	≤ 0.2
KGPW	≤ 0.2
WPYT	≤ 0.2
LNPL	≤ 0.2
VIDE	≤ 0.2
YFYC	≤ 0.2
ITPF	≤ 0.2
ATYD	≤ 0.2
PEKP	≤ 0.2
PHTW	≤ 0.2
RDGS	≤ 0.2
QWVE	≤ 0.2
RPPR	≤ 0.2
RTRG	0.215
IKYS	≤ 0.2
RPGM	≤ 0.2
CYKC	≤ 0.2
LYSK	≤ 0.2
GTGT	≤ 0.2

Variant	one-hybrid fitness for binding NBS DNA
ITET	≤ 0.2
KPDR	≤ 0.2
KCRM	≤ 0.2
LEHP	≤ 0.2
TSNY	≤ 0.2
YATK	≤ 0.2
SPHC	≤ 0.2
STIE	≤ 0.2
ITQI	≤ 0.2
GHAV	≤ 0.2
ATTF	≤ 0.2
SPTI	≤ 0.2
YRPR	≤ 0.2
AFPC	≤ 0.2
YVQW	≤ 0.2
AIGD	≤ 0.2
PEAM	≤ 0.2
VPGT	≤ 0.2
PYNK	≤ 0.2
LLRV	≤ 0.2
